Data as given in US20260083855A1 (Hoffmann-La Roche, published 2026).
Blank lines part the entries; values can stand above or below the binder they belong to.

How the values were obtained:
[1] = biological target: T1, hu IL2R beta-gamma-Fc (P1AD7029-002) (human, UniProt P14784 27-240; P31785 23-262); assay: SPR, purified, captured via anti-human Fc, IL2Rbg-Fc analyte, 1:1 Langmuir
T1 construct: Analyte in all SPR runs; also called human IL2R beta-gamma Fc; recombinant human IL2Rbeta-gamma-Fc heterodimer; not shown: Fc part and any linker of the heterodimer
T1 sequence (looked up) 1: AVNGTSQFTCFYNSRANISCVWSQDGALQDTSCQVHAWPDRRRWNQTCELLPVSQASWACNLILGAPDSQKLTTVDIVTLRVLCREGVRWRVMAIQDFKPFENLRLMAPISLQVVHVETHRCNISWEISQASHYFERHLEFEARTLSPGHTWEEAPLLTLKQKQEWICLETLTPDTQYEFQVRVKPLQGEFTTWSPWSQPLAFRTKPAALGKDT
T1 sequence (looked up) 2: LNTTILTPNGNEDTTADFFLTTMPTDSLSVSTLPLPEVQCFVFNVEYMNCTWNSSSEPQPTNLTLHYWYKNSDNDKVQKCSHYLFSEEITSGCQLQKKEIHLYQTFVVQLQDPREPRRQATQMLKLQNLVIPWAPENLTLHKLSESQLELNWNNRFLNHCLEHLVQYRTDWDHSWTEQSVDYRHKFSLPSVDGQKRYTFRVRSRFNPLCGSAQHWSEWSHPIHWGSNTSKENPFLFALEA
Description: Bulk refractive index differences were corrected for by subtracting the response obtained on the reference flow cell 1.

[2] = biological target: T2, IL-2R on human cells (activated CD4 T cells, PBMC subsets, NK92) (human, UniProt P14784 27-551; P31785 23-369); assay: cell-based or functional assay; design: AUC of STAT5-P on PD1+ T cells / AUC of STAT5-P on PD1-blocked T cells: unit not given beside the values
T2 sequence (looked up) 1: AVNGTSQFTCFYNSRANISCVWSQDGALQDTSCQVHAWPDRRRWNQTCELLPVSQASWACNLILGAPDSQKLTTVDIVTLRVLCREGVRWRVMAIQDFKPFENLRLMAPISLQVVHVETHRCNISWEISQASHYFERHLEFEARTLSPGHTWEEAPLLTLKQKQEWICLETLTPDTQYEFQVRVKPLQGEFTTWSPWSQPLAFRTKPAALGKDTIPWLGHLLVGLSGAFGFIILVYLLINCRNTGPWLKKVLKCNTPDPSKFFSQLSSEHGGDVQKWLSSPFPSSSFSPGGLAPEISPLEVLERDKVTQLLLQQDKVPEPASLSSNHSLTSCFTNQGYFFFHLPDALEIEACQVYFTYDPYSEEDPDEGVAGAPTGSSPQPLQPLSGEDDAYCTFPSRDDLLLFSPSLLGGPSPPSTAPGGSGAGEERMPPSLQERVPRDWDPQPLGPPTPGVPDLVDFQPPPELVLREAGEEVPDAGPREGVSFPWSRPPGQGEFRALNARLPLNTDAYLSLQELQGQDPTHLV
T2 sequence (looked up) 2: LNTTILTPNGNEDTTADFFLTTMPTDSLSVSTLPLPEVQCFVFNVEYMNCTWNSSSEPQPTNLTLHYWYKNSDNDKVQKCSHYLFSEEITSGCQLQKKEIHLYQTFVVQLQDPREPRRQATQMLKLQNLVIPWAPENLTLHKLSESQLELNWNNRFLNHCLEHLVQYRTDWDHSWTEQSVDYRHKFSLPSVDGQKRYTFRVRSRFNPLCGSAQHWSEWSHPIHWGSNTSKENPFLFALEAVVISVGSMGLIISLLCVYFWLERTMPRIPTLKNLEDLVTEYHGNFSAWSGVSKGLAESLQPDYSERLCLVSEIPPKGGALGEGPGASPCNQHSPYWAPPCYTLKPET

[3] = biological target: human PD-1 on activated CD4 T cells (human, UniProt Q15116 25-288); assay: cell-based or functional assay; design: AUC of STAT5-P on PD1+ T cells / AUC of STAT5-P on PD1-blocked T cells: unit not given beside the values
Chain of UniProt Q15116 (Q15116 25-288 limits assumed): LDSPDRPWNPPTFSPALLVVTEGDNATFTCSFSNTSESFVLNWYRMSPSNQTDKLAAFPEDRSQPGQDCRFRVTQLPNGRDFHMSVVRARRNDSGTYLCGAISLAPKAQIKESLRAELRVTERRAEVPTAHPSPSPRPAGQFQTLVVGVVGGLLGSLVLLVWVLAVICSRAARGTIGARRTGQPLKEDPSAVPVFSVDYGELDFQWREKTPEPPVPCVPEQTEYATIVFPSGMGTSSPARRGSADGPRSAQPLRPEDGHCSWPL

B1: PD1 376 IgG-huIL2v L12A (P1AE0490) (other)
light: DIVMTQSPDSLAVSLGERATINCKASESVDTSDNSFIHWYQQKPGQSPKLLIYRSSTLESGVPDRFSGSGSGTDFTLTISSLQAEDVAVYYCQQNYDVPWTFGQGTKVEIKRTVAAPSVFIFPPSDEQLKSGTASVVCLLNNFYPREAKVQWKVDNALQSGNSQESVTEQDSKDSTYSLSSTLTLSKADYEKHKVYACEVTHQGLSSPVTKSFNRGEC
heavy 1: EVQLLESGGGLVQPGGSLRLSCAASGFSFSSYTMSWVRQAPGKGLEWVATISGGGRDIYYPDSVKGRFTISRDNSKNTLYLQMNSLRAEDTAVYYCVLLTGRVYFALDSWGQGTLVTVSSASTKGPSVFPLAPSSKSTSGGTAALGCLVKDYFPEPVTVSWNSGALTSGVHTFPAVLQSSGLYSLSSVVTVPSSSLGTQTYICNVNHKPSNTKVDKKVEPKSCDKTHTCPPCPAPEAAGGPSVFLFPPKPKDTLMISRTPEVTCVVVDVSHEDPEVKFNWYVDGVEVHNAKTKPREEQYNSTYRVVSVLTVLHQDWLNGKEYKCKVSNKALGAPIEKTISKAKGQPREPQVCTLPPSRDELTKNQVSLSCAVKGFYPSDIAVEWESNGQPENNYKTTPPVLDSDGSFFLVSKLTVDKSRWQQGNVFSCSVMHEALHNHYTQKSLSLSPGK
heavy 2: EVQLLESGGGLVQPGGSLRLSCAASGFSFSSYTMSWVRQAPGKGLEWVATISGGGRDIYYPDSVKGRFTISRDNSKNTLYLQMNSLRAEDTAVYYCVLLTGRVYFALDSWGQGTLVTVSSASTKGPSVFPLAPSSKSTSGGTAALGCLVKDYFPEPVTVSWNSGALTSGVHTFPAVLQSSGLYSLSSVVTVPSSSLGTQTYICNVNHKPSNTKVDKKV[human IgG1 Fc with changes not written out]GGGGSGGGGSGGGGSAPASSSTKKTQAQLEHLLLDLQMILNGINNYKNPKLTRMLTAKFAMPKKATELKHLQCLEEELKPLEEVLNGAQSKNFHLRPRDLISNINVIVLELKGSETTFMCEYADETATIVEFLNRWITFAQSIISTLT
notes: Immunoconjugate: anti-human PD-1 (376) IgG1 PG LALA knob/hole, IL2v variant on the knob heavy chain; also called PD1-IL2v L12A
Kd [1]: 130 pM
koff [1]: 2.64e-05 s⁻¹
kon [1]: 196000 M⁻¹ s⁻¹
AUC of STAT5-P on PD1+ T cells [2]: 197
AUC of STAT5-P on PD1-blocked T cells [2]: 84.1
Potency reduction vs PD1-IL2v [2]: 1.49 fold
Cis-delivery: fold increase in EC50, EC50 [with PD1bl]/EC50 [PD1+] [3]: 44.5 fold

B2: PD1 376 IgG-huIL2v N88A (P1AE0495) (other)
light: B1 light
heavy 1: B1 heavy 1
heavy 2: EVQLLESGGGLVQPGGSLRLSCAASGFSFSSYTMSWVRQAPGKGLEWVATISGGGRDIYYPDSVKGRFTISRDNSKNTLYLQMNSLRAEDTAVYYCVLLTGRVYFALDSWGQGTLVTVSSASTKGPSVFPLAPSSKSTSGGTAALGCLVKDYFPEPVTVSWNSGALTSGVHTFPAVLQSSGLYSLSSVVTVPSSSLGTQTYICNVNHKPSNTKVDKKV[human IgG1 Fc with changes not written out]GGGGSGGGGSGGGGSAPASSSTKKTQLQLEHLLLDLQMILNGINNYKNPKLTRMLTAKFAMPKKATELKHLQCLEEELKPLEEVLNGAQSKNFHLRPRDLISAINVIVLELKGSETTFMCEYADETATIVEFLNRWITFAQSIISTLT
notes: Immunoconjugate: anti-human PD-1 (376) IgG1 PG LALA knob/hole, IL2v variant on the knob heavy chain; also called P1AE0495-004
Kd [1]: 1500 pM
koff [1]: 0.00017 s⁻¹
kon [1]: 115000 M⁻¹ s⁻¹

B4: PD1 376 IgG-huIL2v D109A (P1AE0497) (other)
light: B1 light
heavy 1: B1 heavy 1
heavy 2: EVQLLESGGGLVQPGGSLRLSCAASGFSFSSYTMSWVRQAPGKGLEWVATISGGGRDIYYPDSVKGRFTISRDNSKNTLYLQMNSLRAEDTAVYYCVLLTGRVYFALDSWGQGTLVTVSSASTKGPSVFPLAPSSKSTSGGTAALGCLVKDYFPEPVTVSWNSGALTSGVHTFPAVLQSSGLYSLSSVVTVPSSSLGTQTYICNVNHKPSNTKVDKKV[human IgG1 Fc with changes not written out]GGGGSGGGGSGGGGSAPASSSTKKTQLQLEHLLLDLQMILNGINNYKNPKLTRMLTAKFAMPKKATELKHLQCLEEELKPLEEVLNGAQSKNFHLRPRDLISNINVIVLELKGSETTFMCEYAAETATIVEFLNRWITFAQSIISTLT
notes: Immunoconjugate: anti-human PD-1 (376) IgG1 PG LALA knob/hole, IL2v variant on the knob heavy chain; also called PD1-IL2v D109A
Kd [1]: 90 pM
koff [1]: 1.87e-05 s⁻¹
kon [1]: 216000 M⁻¹ s⁻¹
AUC of STAT5-P on PD1+ T cells [2]: 216
AUC of STAT5-P on PD1-blocked T cells [2]: 118
Potency reduction vs PD1-IL2v [2]: 1.12 fold
Cis-delivery: fold increase in EC50, EC50 [with PD1bl]/EC50 [PD1+] [3]: 24.3 fold

B6: PD1 376 IgG-huIL2v L80A (P1AE0494) (other)
light: B1 light
heavy 1: B1 heavy 1
heavy 2: EVQLLESGGGLVQPGGSLRLSCAASGFSFSSYTMSWVRQAPGKGLEWVATISGGGRDIYYPDSVKGRFTISRDNSKNTLYLQMNSLRAEDTAVYYCVLLTGRVYFALDSWGQGTLVTVSSASTKGPSVFPLAPSSKSTSGGTAALGCLVKDYFPEPVTVSWNSGALTSGVHTFPAVLQSSGLYSLSSVVTVPSSSLGTQTYICNVNHKPSNTKVDKKV[human IgG1 Fc with changes not written out]GGGGSGGGGSGGGGSAPASSSTKKTQLQLEHLLLDLQMILNGINNYKNPKLTRMLTAKFAMPKKATELKHLQCLEEELKPLEEVLNGAQSKNFHARPRDLISNINVIVLELKGSETTFMCEYADETATIVEFLNRWITFAQSIISTLT
notes: Immunoconjugate: anti-human PD-1 (376) IgG1 PG LALA knob/hole, IL2v variant on the knob heavy chain; also called PD1-IL2v L80A
Kd [1]: 90 pM
koff [1]: 1.96e-05 s⁻¹
kon [1]: 224000 M⁻¹ s⁻¹
AUC of STAT5-P on PD1+ T cells [2]: 198
AUC of STAT5-P on PD1-blocked T cells [2]: 94.9
Potency reduction vs PD1-IL2v [2]: 1.58 fold
Cis-delivery: fold increase in EC50, EC50 [with PD1bl]/EC50 [PD1+] [3]: 29.1 fold

The next binders have a lower Kd [1] than those just listed; values first:

Kd [1]: 2 pM
koff [1]: 3.07e-07 s⁻¹
kon [1]: 186000 M⁻¹ s⁻¹
AUC of STAT5-P on PD1+ T cells [2]: 201
AUC of STAT5-P on PD1-blocked T cells [2]: 99.7
Potency reduction vs PD1-IL2v [2]: 1.49 fold
Cis-delivery: fold increase in EC50, EC50 [with PD1bl]/EC50 [PD1+] [3]: 26.7 fold
B3: PD1 376 IgG-huIL2v K8S (P1AE0488) (other)
light: B1 light
heavy 1: B1 heavy 1
heavy 2: EVQLLESGGGLVQPGGSLRLSCAASGFSFSSYTMSWVRQAPGKGLEWVATISGGGRDIYYPDSVKGRFTISRDNSKNTLYLQMNSLRAEDTAVYYCVLLTGRVYFALDSWGQGTLVTVSSASTKGPSVFPLAPSSKSTSGGTAALGCLVKDYFPEPVTVSWNSGALTSGVHTFPAVLQSSGLYSLSSVVTVPSSSLGTQTYICNVNHKPSNTKVDKKV[human IgG1 Fc with changes not written out]GGGGSGGGGSGGGGSAPASSSTSKTQLQLEHLLLDLQMILNGINNYKNPKLTRMLTAKFAMPKKATELKHLQCLEEELKPLEEVLNGAQSKNFHLRPRDLISNINVIVLELKGSETTFMCEYADETATIVEFLNRWITFAQSIISTLT
notes: Immunoconjugate: anti-human PD-1 (376) IgG1 PG LALA knob/hole, IL2v variant on the knob heavy chain; also called PD1-IL2v K8S

Kd [1]: 50 pM
koff [1]: 9.2e-06 s⁻¹
kon [1]: 210000 M⁻¹ s⁻¹
AUC of STAT5-P on PD1+ T cells [2]: 204
AUC of STAT5-P on PD1-blocked T cells [2]: 112
Potency reduction vs PD1-IL2v [2]: 1.51 fold
Cis-delivery: fold increase in EC50, EC50 [with PD1bl]/EC50 [PD1+] [3]: 16.9 fold
B5: PD1 376 IgG-huIL2v H79S (P1AE0493) (other)
light: B1 light
heavy 1: B1 heavy 1
heavy 2: EVQLLESGGGLVQPGGSLRLSCAASGFSFSSYTMSWVRQAPGKGLEWVATISGGGRDIYYPDSVKGRFTISRDNSKNTLYLQMNSLRAEDTAVYYCVLLTGRVYFALDSWGQGTLVTVSSASTKGPSVFPLAPSSKSTSGGTAALGCLVKDYFPEPVTVSWNSGALTSGVHTFPAVLQSSGLYSLSSVVTVPSSSLGTQTYICNVNHKPSNTKVDKKV[human IgG1 Fc with changes not written out]GGGGSGGGGSGGGGSAPASSSTKKTQLQLEHLLLDLQMILNGINNYKNPKLTRMLTAKFAMPKKATELKHLQCLEEELKPLEEVLNGAQSKNFSLRPRDLISNINVIVLELKGSETTFMCEYADETATIVEFLNRWITFAQSIISTLT
notes: Immunoconjugate; also called PD1-IL2v H79S
